T1: UNK ZnF1-3 (human, UniProt Q9C0B0 31-174)
T1 sequence: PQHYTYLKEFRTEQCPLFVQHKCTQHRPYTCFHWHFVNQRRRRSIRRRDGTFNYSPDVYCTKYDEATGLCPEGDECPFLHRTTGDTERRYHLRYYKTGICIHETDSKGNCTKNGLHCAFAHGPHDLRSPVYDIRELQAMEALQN

B1: chr1:163112212:163112213:-_ENSG00000143248_ENST00000313961|hu_mus|FALSE|FALSE (ssRNA)
RNA: GGGAGUUCUACAGUCCGACGAUCUUUUAUUAUCAGUAAGAGUGAGUUACAUACUAGGCAAAGUAUUGGAUACAAUAAUCAGGAAACAAACACUAUUGGUCCAGAAUUUAAAACUUUAUGAGCGAAGUGCUGGCACAGGACUUACAACAGAGGAUUGAGCAUCA
B2: 74054674_74055216_553_CDS_ENSG00000164347_ENST00000509430|human|control|control (ssRNA)
RNA: GGGAGUUCUACAGUCCGACGAUCUCCCAGUGAUCUUGUAUAUCCGGAAUAGUACAAUAUUCUUUCUGUGGUGGUAGUUUUGCCUGCAUCAAUAUGAGCCAUAAUUCCAAUAUUACGGAUUUUAGCUAUGGGAGGAUUGAUGAUCAACAGAGGAUUGAGCAUCA
B3: chr2:202488911:202488912:-_ENSG00000155755_ENST00000286196|hu_mus|hu_hu_hu_mus_False|68_68 (ssRNA)
RNA: GGGAGUUCUACAGUCCGACGAUCAUUGAAACAUUUUUCAUAAUCUCCAGUAGCAUUUCAGCAUUAUUAAUCAAAAACUCAAUUGUAAAUACAUGUAUCUUAUAAAAAUACACUUAAAAACACGAGUGGGGAGCGCAGGCGCCACAACAGAGGAUUGAGCAUCA
B4: chr19:16452684:16452685:+_ENSMUSG00000024639_ENSMUST00000025541|perfect_dup|motif|central (ssRNA)
RNA: GGGAGUUCUACAGUCCGACGAUCGUUUAAGAACAGAAUCACAGAGGAGUUCUGGAACCAGGGGUAGGUGAUAAUUGUUCGGAAGAGUGCUUUGCUCUCCUCCAUGCGGUUCUCAUUGUCUGACUCCACAAGAACUUGAUCAUACAACAGAGGAUUGAGCAUCA
B5: chr17:4848066:4848067:+_ENSG00000108523_ENST00000575111|hu_hu|FALSE|FALSE (ssRNA)
RNA: GGGAGUUCUACAGUCCGACGAUCAGUUUCUUCCUCUUGGUCUUCGUCCCCAGGACCCCGAUGAACAGGCUGCUUGCAAAUGGGGCAGGUCUUCCGGGUCUGAGUGAGCCAGGGGUCCACGCAGCGGCUGUGGUAGGCAUGAGCCAACAGAGGAUUGAGCAUCA
B6: chr18:52893488:52893489:-_ENSG00000196628_ENST00000354452|hu_hu|motif|central (ssRNA)
RNA: GGGAGUUCUACAGUCCGACGAUCCAUUUAGACCAUUUCAAUGGAUUUAUGGCAUUUACUCAGUGCUGAUAGGUGGAAAAACGGCUUGAACAGGGAUUUUUUUUUUUCUUAAUACAUGCCAAGAAUUGUGUGGCUGUAAAAAUACAACAGAGGAUUGAGCAUCA
B7: chr4:25749455:25749456:-_ENSG00000091490_ENST00000264868|hu_hu|hu_hu_hu_mus_False|68_98 (ssRNA)
RNA: GGGAGUUCUACAGUCCGACGAUCGCACUAUGACCUCCCCUAGAAAACACAGGGGGAAAAAAUGUAAACCAAUUUACAAUGUUAUCGCCUUCCCUGUGUGUGGAGUGUUUGUCUCAAGGCUCCUUCUAGCUGCUGGAUUUGGGACAACAGAGGAUUGAGCAUCA
B8: chr2:176793893:176793894:-_ENSG00000144320_ENST00000272748|hu_hu|FALSE|FALSE (ssRNA)
RNA: GGGAGUUCUACAGUCCGACGAUCAAAAUGAAACUGAUGCCAGAUUAUUUUCAUUUUCCUUAAUAAAAUACAAACAAGAGCACAAAAUUCACUUAUAUAUCAUCAUUUUAUACUUAUAAAUAAUGCUCAGAAUUCAAAUAGGGUCAACAGAGGAUUGAGCAUCA
B9: chr18:56819859:56819860:+_ENSG00000166562_ENST00000588875|hu_mus|hu_hu_hu_mus_True|8_68 (ssRNA)
RNA: GGGAGUUCUACAGUCCGACGAUCAACCUUGAUUACUCUGUGAACUAUCGGAAUGUCUCUUCCUUCAACUUUAAAAACAACUAUUUCACCAGCUCUGAUGGGGUCCUCCCGGAAAUUCGUGAGGAACAGGAGGUCUCCUCUGUGCAACAGAGGAUUGAGCAUCA
B10: chr11:75505782:75505783:+_ENSMUSG00000017776_ENSMUST00000017920|mus_mus|motif|central (ssRNA)
RNA: GGGAGUUCUACAGUCCGACGAUCUGCCUCCUCCUGCCUGAGAAUCACUCCACUACCCUGCCUUGAUCUGGCCACUGGUUCGGUCAAUGUUGUAGUGUCCAAAUAGUGUAUUUUGUAGAAUUCCAGUAAAGCAGGCAAUGAAUCCAACAGAGGAUUGAGCAUCA
B11: 130624029_130624149_2639_CDS_ENSMUSG00000030757_ENSMUST00000042470|mouse|control|control (ssRNA)
RNA: GGGAGUUCUACAGUCCGACGAUCUCUCCUCCCCACACAAGGCCUCUGAUGCACCACAGCCUUCCCUGUAUCUCUAGGUUGAGACAUCAGCUUUCCCUGUCUAACUCCUUGAAGGUUUUCACAGUGUCUUCCUGAGAAGUACUCCAACAGAGGAUUGAGCAUCA
B12: chr5:93601047:93601048:+_ENSMUSG00000058013_ENSMUST00000074733|mus_mus|FALSE|FALSE (ssRNA)
RNA: GGGAGUUCUACAGUCCGACGAUCAAUGAGGUGUUCUUUGAGAUCUGGACCCGUGAGAGUGUCCGGGACGCCCUGGUGGGGGUGAACGUAAUCAUGUUUCUCGUGCCAGUCUGUAGCUGUGGCCUGGCUCUGAAGGUAGGCAUUCAACAGAGGAUUGAGCAUCA
B13: chr1:225611761:225611762:-_ENSG00000143815_ENST00000272163|hu_mus|hu_hu_hu_mus_True|38_38 (ssRNA)
RNA: GGGAGUUCUACAGUCCGACGAUCCCAGGCCAUCGGCCUCUGACCACUUCACCCUCAACAAACUUCCUACUUGGCAUUUUCUAAAAUUAGUCUGGCCCAGGUUCCGGGGGAACUCCAGCCACUCCAGGACAGUCACCAGCAGCCCAACAGAGGAUUGAGCAUCA
B14: chr9:75491700:75491701:-_ENSMUSG00000032181_ENSMUST00000034699|mus_mus|FALSE|FALSE (ssRNA)
RNA: GGGAGUUCUACAGUCCGACGAUCGUAGAUGCGUUUGAUGGCGUUGGCUUCUUCCUUGUCGAGGAUGCCCUUCUCCACAUAAGCGUCAGCUUGUUGGUUGAUAAAGUCCCUCAUCUUUGAAAGGUCGUAAUCUUCUUUGUUGCCCAACAGAGGAUUGAGCAUCA
B15: 148129148_148129268_2566_3pUTR_ENSMUSG00000030304_ENSMUST00000136008|mouse|control|control (ssRNA)
RNA: GGGAGUUCUACAGUCCGACGAUCUCCUGUGUCUGGUAGGGACUGAAACUCAGUCUUCUCACUCAAUGACUUAACCUUUAUCUUUCAAAAAGACAGAAUGAAAUGAGGCUGGCACACAUACUCAGCAGUUCCUAGCAGUACCUGCAACAGAGGAUUGAGCAUCA
B16: chr18:34657717:34657718:-_ENSMUSG00000036501_ENSMUST00000040506|mus_mus|FALSE|FALSE (ssRNA)
RNA: GGGAGUUCUACAGUCCGACGAUCUCAUUGUCUGGAUGUCCUCCCUGCUGCAGCUCAUCAAGUGGAAUUCCAAAUAUUUUGCUAGCAAGAUCGGAGUUGCAGUUACUCAAGGAAGGGGAGGAGCUCUUCCUCAUAGCUUUUUUGCAACAGAGGAUUGAGCAUCA
B17: 89559355_89559475_3338_3pUTR_ENSMUSG00000027950_ENSMUST00000029562|mouse|control|control (ssRNA)
RNA: GGGAGUUCUACAGUCCGACGAUCCCCUUGGCACUAGCUGCUCCAGACUUGCAGGUCUCCACAGAGGCAGGGGGCCUGUGGGCCAUCUGCCUAGGCAAAGGCGGCUGCCAGGUUACUGGAGCUUAGUCCCUGAUUCGAGUCCCCCAACAGAGGAUUGAGCAUCA
B18: chr19:8913615:8913616:-_ENSMUSG00000071658_ENSMUST00000096259|mus_hu|mus_mus_mus_hu_False|1_28 (ssRNA)
RNA: GGGAGUUCUACAGUCCGACGAUCAGGGUACCAAAACCUUCUGCCUGAAAUGGGUGCCCCACCCAGUAGGGAGUUGCAGCUGAAAGUAUCUGAUGCAGAAGCAGUGAAUGCAGAGAAGGAGGCCCCUGGGGAGGGCCCGAGAUCCAACAGAGGAUUGAGCAUCA
B19: chr8:30550554:30550555:-_ENSG00000104687_ENST00000414019|hu_hu|motif|central (ssRNA)
RNA: GGGAGUUCUACAGUCCGACGAUCGCCAGCGUUCUCCAGCUCCUCCGUGCAGUUGGUGCUGAUCAUUGAAUCAAAACUUCGGAGUACCUUAUCAUGCCGUAUCAUCAGUGAUGUCUUAGAACCCAGGGCUGACAGGAUCCCUGCCAACAGAGGAUUGAGCAUCA
B20: chr9:116041357:116041358:+_ENSG00000136875_ENST00000374198|hu_mus|FALSE|FALSE (ssRNA)
RNA: GGGAGUUCUACAGUCCGACGAUCUUCUCUUCGUUCAGCAGGGCCCUCUCCAAAAAGCGUGAUAGGCUCUCCCAAGGCUCGAAGGCAAGCCUUGACCUCUGAGUCAUCUGUGGAAACAUUGAUCUGCCGGGCUCGCUUUCUUCUCAACAGAGGAUUGAGCAUCA
B21: chr14:70237991:70237992:+_ENSG00000100650_ENST00000557154|hu_mus|FALSE|FALSE (ssRNA)
RNA: GGGAGUUCUACAGUCCGACGAUCCCUGCUCCUUGAUCGGCUGUAAGACUUGCUCCUUCGUGAACGGGAUCGGCUACGGGACCUAGAGGAACUUCUGGUCCGAGAUCGUGACCUGCUUCUUGACCUGUGCCUUUUGCUGCCUUCCAACAGAGGAUUGAGCAUCA
B22: 196311818_196311938_1409_3pUTR_ENSG00000174013_ENST00000440469|human|control|control (ssRNA)
RNA: GGGAGUUCUACAGUCCGACGAUCUGGGAACUGUAAGCCAAAAAUAAUACAAAAUGAGUCAAUACAACACAUCUCCUCUUAAAAUCCUCUUCUUUGUAGUUAACCCAGUUGUCCCCAAAUGUUAUUCCAAUUUUGUAACCAUGUCAACAGAGGAUUGAGCAUCA

These results are taken from PMC12136788.

The other results are listed elsewhere or left out.

The target of this assay is T1, UNK ZnF1-3. The experiment in a line: nsRBNS (natural sequence RNA bind-n-seq); RBNS binding buffer (assumed for nsRBNS): 25 mM Tris pH 7.5, 150 mM KCl, 3 mM MgCl2, 0.01% Triton X-100, 500 ug/ml BSA, 20 U/ml SUPERase-In, 4 C; UNK is unkempt and MSI1 is Musashi-1; names of the RNAs are library labels; protein concentration not given here; high values mean tight binding.
Molecule B1 displayed a binding signal of 1.24 enrichment R.

Molecule B2 yielded a binding signal of 1.15 enrichment R. To B3 belongs 1.01 enrichment R. To B4 belongs 0.827 enrichment R; to B5, 0.759 enrichment R. The molecule B6 had a binding signal of 1.03 enrichment R. The result for B7 reads 1.03 enrichment R. Consider B8, for which the binding signal was determined as 1.52 enrichment R. The molecule B9 registered a binding signal of 0.73 enrichment R.

For B10, the binding signal was determined as 0.91 enrichment R. To B11 belongs 0.969 enrichment R. The result for B12 reads 0.67 enrichment R; that for B13, 1.52 enrichment R; that for B14, 0.32 enrichment R. To B15 belongs 1.12 enrichment R. In turn, B16 had a binding signal of 0.771 enrichment R. In turn, B17 showed a binding signal of 0.592 enrichment R. The result for B18 reads 1.38 enrichment R; that for B19, 0.956 enrichment R; that for B20, 0.617 enrichment R. B21 gave a binding signal of 0.677 enrichment R. The result for B22 reads 1.53 enrichment R.
